Reference: the supplement of paper PMC4604168 (melanoma cell lines)
This is one part of the list. Single values are uncertain, as repeats are few or missing.

Experiments:
Test in all cases: cell count relative to DMSO control; melanoma cells; higher = more viable cells
Settings in all cases: library dose: low library concentration; 72 h
MZ2-MEL = system: MZ2-MEL
MeWo = system: MeWo
RPMI7951 = system: RPMI7951
RVH-421 = system: RVH-421
SkMel28 = system: SkMel28
SkMel2 = system: SkMel2
SkMel30 = system: SkMel30
SkMel5 = system: SkMel5
UACC257 = system: UACC257
UACC62 = system: UACC62
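Also: cell number obtained by counting DAPI-stained nuclei in high-throughput microscope images with image analysis software, screen run in 1,536-well plates.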

| Compound | cell count (MZ2-MEL) [%] | cell count (MeWo) [%] | cell count (RPMI7951) [%] | cell count (RVH-421) [%] | cell count (SkMel28) [%] | cell count (SkMel2) [%] | cell count (SkMel30) [%] | cell count (SkMel5) [%] | cell count (UACC257) [%] | cell count (UACC62) [%] |
| --- | --- | --- | --- | --- | --- | --- | --- | --- | --- | --- |
| CC[C@]1(O)C[C@H]2CN(CCc3c([nH]c4ccccc34)[C@@](C(=O)OC)(c3cc4c(cc3OC)N(C=O)[C@H]3[C@@](O)(C(=O)OC)[C@H](OC(C)=O)[C@]5(CC)C=CCN6CC[C@]43[C@@H]65)C2)C1 [vincristine] + O=C(CCCCCCC(=O)Nc1ccccc1)NO [vorinostat] (first compound 0.0001 µM, partner dose 0.08 µM) | 103 | 101 | 84.5 | 89.1 | 87 | 91.8 | 81.4 | 83.8 | 47.2 | 81.2 |
| N#CC[C@H](C1CCCC1)n1cc(-c2ncnc3[nH]ccc23)cn1 [ruxolitinib] + COc1cc(N2CCC(N3CCN(C)CC3)CC2)ccc1Nc1ncc(Cl)c(Nc2ccccc2S(=O)(=O)C(C)C)n1 [NVP-TAE684] (first compound 1 µM, partner dose 0.08 µM) | 94.5 | 87.3 | 77.5 | 84.5 | 105 | 106 | 79.8 | 87.7 | 93.3 | 119 |
| Cc1cc(Nc2cc(N3CCN(C)CC3)nc(Sc3ccc(NC(=O)C4CC4)cc3)n2)n[nH]1 [Tozasertib] + COc1ccc(COc2ccc(Cc3cnc(N)nc3N)cc2OC)cc1 [GW2580] (first compound 0.006 µM, partner dose 1 µM) | 92.1 | 100 | 91.7 | 99.3 | 94.5 | 97.2 | 95.9 | 102 | 110 | 87.1 |
| Cc1cc(Nc2cc(N3CCN(C)CC3)nc(Sc3ccc(NC(=O)C4CC4)cc3)n2)n[nH]1 [Tozasertib] + Cc1ccc(NC(=O)c2cccc(N(C)C)c2)cc1NC(=O)c1ccc(O)cc1 [ZM336372] (first compound 0.006 µM, partner dose 2 µM) | 84.2 | 93.2 | 89.5 | 106 | 101 | 105 | 102 | 96.2 | 88.5 | 92.2 |
| CC[C@]1(O)C[C@H]2CN(CCc3c([nH]c4ccccc34)[C@@](C(=O)OC)(c3cc4c(cc3OC)N(C=O)[C@H]3[C@@](O)(C(=O)OC)[C@H](OC(C)=O)[C@]5(CC)C=CCN6CC[C@]43[C@@H]65)C2)C1 [vincristine] + NCC(=O)Nc1ccc(-n2nc(C(F)(F)F)cc2-c2ccc3c(ccc4ccccc43)c2)cc1 [OSU03012] (first compound 0.0001 µM, partner dose 1 µM) | 94.6 | 61.9 | 101 | 69.8 | 88.4 | 70.2 | 49 | 82.6 | 71.9 | 84.1 |
| N#CC[C@H](C1CCCC1)n1cc(-c2ncnc3[nH]ccc23)cn1 [ruxolitinib] + COc1cc2ncnc(Nc3ccc(Oc4ccccc4)cc3)c2cc1OC [SrcI1] (first compound 1 µM, partner dose 2 µM) | 92 | 95 | 94.3 | 105 | 96.3 | 107 | 86.4 | 124 | 103 | 109 |
| CC[C@]1(O)C[C@H]2CN(CCc3c([nH]c4ccccc34)[C@@](C(=O)OC)(c3cc4c(cc3OC)N(C=O)[C@H]3[C@@](O)(C(=O)OC)[C@H](OC(C)=O)[C@]5(CC)C=CCN6CC[C@]43[C@@H]65)C2)C1 [vincristine] + Cc1cc(N2CCOCC2)cc2[nH]c(-c3c(NC[C@@H](O)c4cccc(Cl)c4)cc[nH]c3=O)nc12 [BMS536924] (first compound 0.0001 µM, partner dose 0.2 µM) | 91.7 | 71.3 | 52.5 | 90.2 | 52.2 | 86.3 | 44.2 | 71.1 | 43.3 | 55.4 |
| Cc1cc(Nc2cc(N3CCN(C)CC3)nc(Sc3ccc(NC(=O)C4CC4)cc3)n2)n[nH]1 [Tozasertib] + O=C(Nc1ccccc1)c1cc([N+](=O)[O-])ccc1Cl [GW9662] (first compound 0.006 µM, partner dose 2 µM) | 101 | 74.1 | 72.7 | 85.4 | 90.2 | 100 | 95.9 | 103 | 98.7 | 79.9 |
| Cc1cc(Nc2cc(N3CCN(C)CC3)nc(Sc3ccc(NC(=O)C4CC4)cc3)n2)n[nH]1 [Tozasertib] + COc1ccc2c(c1)CCC1C2CCC2(C)C(NCCCCCCN3C(=O)C=CC3=O)CCC12 [U73122] (first compound 0.006 µM, partner dose 0.4 µM) | 105 | 95.6 | 73.9 | 79.8 | 91.3 | 110 | 113 | 104 | 103 | 99 |
| Cc1cc(Nc2cc(N3CCN(C)CC3)nc(Sc3ccc(NC(=O)C4CC4)cc3)n2)n[nH]1 [Tozasertib] + COc1ccc(-c2ccc3c(N4CCOCC4)nc(N4C[C@@H](C)O[C@@H](C)C4)nc3n2)cc1CO [KU0063794] (first compound 0.006 µM, partner dose 0.02 µM) | 106 | 97.1 | 90.3 | 96.1 | 79.9 | 98.1 | 87.2 | 104 | 82.5 | 85.8 |
| Cc1cc(Nc2cc(N3CCN(C)CC3)nc(Sc3ccc(NC(=O)C4CC4)cc3)n2)n[nH]1 [Tozasertib] + Cn1cncc1[C@@](N)(c1ccc(Cl)cc1)c1ccc2c(c1)c(-c1cccc(Cl)c1)cc(=O)n2C [tipifarnib] (first compound 0.006 µM, partner dose 0.01 µM) | 114 | 96.5 | 89.9 | 103 | 70.8 | 89.4 | 131 | 83 | 85.2 | 83.7 |
| N#CC[C@H](C1CCCC1)n1cc(-c2ncnc3[nH]ccc23)cn1 [ruxolitinib] + Cc1cc(N2CCOCC2)cc2[nH]c(-c3c(NC[C@@H](O)c4cccc(Cl)c4)cc[nH]c3=O)nc12 [BMS536924] (first compound 1 µM, partner dose 0.2 µM) | 106 | 96.4 | 121 | 97.9 | 118 | 103 | 99.8 | 95.5 | 80.9 | 108 |
| Cc1cc(Nc2cc(N3CCN(C)CC3)nc(Sc3ccc(NC(=O)C4CC4)cc3)n2)n[nH]1 [Tozasertib] + CC1(C)NC(=O)N(c2ccc([N+](=O)[O-])c(C(F)(F)F)c2)C1=O [nilutamide] (first compound 0.006 µM, partner dose 1 µM) | 99.5 | 89.7 | 99.9 | 111 | 96.3 | 102 | 98.9 | 94.1 | 98.6 | 93.8 |
| CC[C@]1(O)C[C@H]2CN(CCc3c([nH]c4ccccc34)[C@@](C(=O)OC)(c3cc4c(cc3OC)N(C=O)[C@H]3[C@@](O)(C(=O)OC)[C@H](OC(C)=O)[C@]5(CC)C=CCN6CC[C@]43[C@@H]65)C2)C1 [vincristine] + Oc1cc(-c2nc(-c3ccccc3)[nH]c2-c2ccncc2)ccc1Cl [L779450] (first compound 0.0001 µM, partner dose 0.2 µM) | 77.2 | 94.5 | 71.8 | 74.1 | 65.2 | 89.5 | 80.6 | 92.3 | 41.6 | 50.4 |
| CC[C@]1(O)C[C@H]2CN(CCc3c([nH]c4ccccc34)[C@@](C(=O)OC)(c3cc4c(cc3OC)N(C=O)[C@H]3[C@@](O)(C(=O)OC)[C@H](OC(C)=O)[C@]5(CC)C=CCN6CC[C@]43[C@@H]65)C2)C1 [vincristine] + N#Cc1c(O)c2c(-c3ccc(-c4ccccc4O)cc3)csc2[nH]c1=O [A769662] (first compound 0.0001 µM, partner dose 2 µM) | 100 | 91.2 | 59.6 | 88.8 | 61.7 | 95.7 | 77.6 | 80.9 | 67.9 | 56.4 |
| Cc1cc(Nc2cc(N3CCN(C)CC3)nc(Sc3ccc(NC(=O)C4CC4)cc3)n2)n[nH]1 [Tozasertib] + COC(=O)c1sccc1S(=O)(=O)Nc1ccc(Nc2ccccc2)cc1OC [GSK0660] (first compound 0.006 µM, partner dose 1 µM) | 89 | 90.5 | 101 | 74.2 | 78.6 | 103 | 93.2 | 99.8 | 72.9 | 79.3 |
| Cc1cc(Nc2cc(N3CCN(C)CC3)nc(Sc3ccc(NC(=O)C4CC4)cc3)n2)n[nH]1 [Tozasertib] + O=C1NC(=O)/C(=C/c2ccc(-c3ccc(F)cc3O)o2)S1 [AS252424] (first compound 0.006 µM, partner dose 1 µM) | 104 | 86.3 | 121 | 80.6 | 81.4 | 95.1 | 101 | 99.6 | 85.8 | 100 |
| CC[C@]1(O)C[C@H]2CN(CCc3c([nH]c4ccccc34)[C@@](C(=O)OC)(c3cc4c(cc3OC)N(C=O)[C@H]3[C@@](O)(C(=O)OC)[C@H](OC(C)=O)[C@]5(CC)C=CCN6CC[C@]43[C@@H]65)C2)C1 [vincristine] + COc1cc(Nc2ncc(F)c(Nc3ccc4c(n3)NC(=O)C(C)(C)O4)n2)cc(OC)c1OC [Tamatinib] (first compound 0.0001 µM, partner dose 0.4 µM) | 78 | 72.9 | 71.6 | 90.7 | 67.8 | 87.1 | 62.1 | 87 | 34.6 | 58.1 |
